Some of the results follow. These are noisy estimates, calculated here from bound and input reads.
Target: T1, Pho4 (S. cerevisiae) (UniProt P07270)
T1 sequence: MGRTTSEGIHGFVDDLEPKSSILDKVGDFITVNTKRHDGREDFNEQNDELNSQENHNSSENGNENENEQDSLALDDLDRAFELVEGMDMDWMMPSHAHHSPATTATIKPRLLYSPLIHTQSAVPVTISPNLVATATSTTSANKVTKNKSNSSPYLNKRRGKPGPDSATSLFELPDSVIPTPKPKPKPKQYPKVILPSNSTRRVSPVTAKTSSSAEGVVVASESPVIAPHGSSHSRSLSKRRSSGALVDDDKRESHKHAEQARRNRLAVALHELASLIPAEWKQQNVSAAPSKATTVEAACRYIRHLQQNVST
Experiment: relative binding free energy (BET-seq); higher = weaker binding
Conditions: reference: library average

Row | Sequence | relative binding free energy
1 | ATTCGCACGTGTGTTG | 0.03 kcal/mol
2 | TTAAACACGTGTTCTT | -0.06 kcal/mol
3 | ATTCGCACGTGTAAGG | 0.05 kcal/mol
4 | TAGTCCACGTGAGGTT | 0.15 kcal/mol
5 | ATGATCACGTGGTCGG | 0.03 kcal/mol
6 | AGTGGCACGTGAGATT | 0.24 kcal/mol
7 | ATTTTCACGTGTTGTG | 0.23 kcal/mol
8 | AAGAGCACGTGCAGGG | -0.01 kcal/mol
9 | GTACGCACGTGGTGCT | -0.18 kcal/mol
10 | GTCAGCACGTGTGCGG | -0.13 kcal/mol
11 | CTAGACACGTGTTTGG | 0.01 kcal/mol
12 | TGTTACACGTGGCCTT | 0.04 kcal/mol
13 | GGAGGCACGTGGGATG | -0.19 kcal/mol
14 | GCTTGCACGTGTGGTT | 0.14 kcal/mol
15 | GGGCACACGTGAGTGG | 0.21 kcal/mol
16 | ATGTACACGTGGAGAG | -0.03 kcal/mol
17 | GGGTTCACGTGTGGAC | 0.3 kcal/mol
18 | GATGGCACGTGGACGT | 0.01 kcal/mol
19 | GGCTTCACGTGGTGCA | 0.34 kcal/mol
20 | AGCGGCACGTGTGGGT | 0.04 kcal/mol
21 | GGATGCACGTGTGGGT | 0.05 kcal/mol
22 | GTTACCACGTGGTGGG | 0.01 kcal/mol
23 | CGCGTCACGTGGGGTG | -0.2 kcal/mol

Row | Sequence | relative binding free energy
24 | TTCGGCACGTGGGCTT | -0.2 kcal/mol
25 | ACGGGCACGTGTGTTA | -0.08 kcal/mol
26 | TCCAGCACGTGGGGGA | -0.11 kcal/mol
27 | TCGAGCACGTGGTGGA | -0.16 kcal/mol
28 | AGATTCACGTGGGATG | 0.27 kcal/mol
29 | TAGAGCACGTGTGGAG | -0.16 kcal/mol
30 | TGGGTCACGTGAAGGG | 0.3 kcal/mol
31 | GTTGACACGTGTGATG | 0.12 kcal/mol
32 | TGGAACACGTGGGTCA | -0.16 kcal/mol
33 | GATGGCACGTGTTGGT | 0.02 kcal/mol
34 | TTAAGCACGTGGGGCA | -0.27 kcal/mol
35 | AATTGCACGTGCGAGG | 0.11 kcal/mol
36 | GGGCCCACGTGCTGGG | -0.15 kcal/mol
37 | GAGGTCACGTGGTAGA | 0.14 kcal/mol
38 | CGATTCACGTGCGTGG | 0.18 kcal/mol
39 | TAAGGCACGTGTGATC | 0.09 kcal/mol
40 | ATATTCACGTGGCAGG | 0.19 kcal/mol
41 | TTTATCACGTGTAGTA | 0.2 kcal/mol
42 | CAGGTCACGTGGAGTG | 0.03 kcal/mol
43 | GAGTGCACGTGGAAAG | 0.24 kcal/mol
44 | TATATCACGTGAGGGG | 0.42 kcal/mol
45 | TTAAGCACGTGTATGA | -0.13 kcal/mol
46 | TCTATCACGTGTTTTT | 0.25 kcal/mol

Row | Sequence | relative binding free energy
47 | GGGGCCACGTGTGATT | 0.04 kcal/mol
48 | AGAAACACGTGGGGTA | -0.2 kcal/mol
49 | AGTAGCACGTGTAGGC | -0.09 kcal/mol
50 | GGTGGCACGTGTGGTC | -0.01 kcal/mol
51 | GGAATCACGTGTGCGT | 0.22 kcal/mol
52 | ATAAGCACGTGTTTGG | -0.04 kcal/mol
53 | TAAGTCACGTGAAAGG | 0.37 kcal/mol
54 | CGCTTCACGTGTGTTT | 0.13 kcal/mol
55 | TTTGGCACGTGAGCAT | 0.16 kcal/mol
56 | ATTCTCACGTGGGCGG | 0.14 kcal/mol
57 | GGAGACACGTGAAGTG | 0.34 kcal/mol
58 | TTGTTCACGTGTTGGG | 0.24 kcal/mol
59 | TTTGTCACGTGCAATT | 0.13 kcal/mol
60 | AGGATCACGTGGCAGT | 0.13 kcal/mol
61 | TATGGCACGTGGAAGC | -0.09 kcal/mol
62 | GGTCGCACGTGGCCGG | -0.1 kcal/mol
63 | TTGTGCACGTGTAGGC | 0.03 kcal/mol
64 | GGCTGCACGTGGAGCT | 0.21 kcal/mol
65 | GTGTGCACGTGGAGTT | 0.06 kcal/mol
66 | GTAATCACGTGCGTGT | 0.08 kcal/mol
67 | TGAGCCACGTGGTGTC | -0.06 kcal/mol
68 | ACTTGCACGTGTTGGG | -0.02 kcal/mol
69 | TTTATCACGTGACGTT | 0.25 kcal/mol

Row | Sequence | relative binding free energy
70 | ATCAGCACGTGGTGGG | -0.12 kcal/mol
71 | GTTTGCACGTGAGGCA | 0.23 kcal/mol
72 | CGGATCACGTGGCGGG | 0.13 kcal/mol
73 | AGGATCACGTGATGCG | 0.17 kcal/mol
74 | GTGGGCACGTGTTCTG | -0.12 kcal/mol
75 | GTAAACACGTGGTTGG | 0.01 kcal/mol
76 | ACGGACACGTGGGTGG | -0.04 kcal/mol
77 | GTGTACACGTGCGATT | 0.04 kcal/mol
78 | ATTGTCACGTGAGGTT | 0.29 kcal/mol
79 | TGGTACACGTGTGGAC | 0.03 kcal/mol
80 | TGCGGCACGTGTTGTC | -0.02 kcal/mol
81 | TTAGTCACGTGCTTGG | -0.03 kcal/mol
82 | AACGGCACGTGGTGGG | -0.21 kcal/mol
83 | TTTATCACGTGATTTC | 0.28 kcal/mol
84 | GCCGGCACGTGATGGT | 0.24 kcal/mol
85 | CTTAACACGTGATTTA | 0.26 kcal/mol
86 | TAGTGCACGTGGTGAG | 0 kcal/mol
87 | TCGTGCACGTGTGGAG | 0.05 kcal/mol
88 | GGGCCCACGTGATGGG | 0.05 kcal/mol
89 | TGACGCACGTGGTTGT | -0.12 kcal/mol
90 | TATCGCACGTGGGGTC | -0.21 kcal/mol
91 | TGTACCACGTGTTAGT | -0.01 kcal/mol
92 | CGATACACGTGGAGGG | -0.06 kcal/mol

Row | Sequence | relative binding free energy
93 | GTGTGCACGTGCAGAT | 0.13 kcal/mol
94 | TGGGACACGTGGTGGC | 0.06 kcal/mol
95 | GGTAGCACGTGTGTTC | 0.02 kcal/mol
96 | GGTCGCACGTGCGAGT | -0.15 kcal/mol
97 | TGTTGCACGTGTAAGG | 0.13 kcal/mol
98 | TTGGGCACGTGCAGTC | -0.05 kcal/mol
99 | TGATTCACGTGCAGTT | 0.35 kcal/mol
100 | AAGAACACGTGAGTGG | 0.39 kcal/mol
101 | GGGTACACGTGCTGGT | 0.1 kcal/mol
102 | GTTGTCACGTGAGCTT | 0.26 kcal/mol
103 | GTTACCACGTGTAGTG | 0.02 kcal/mol
104 | TATATCACGTGTCGGA | 0.34 kcal/mol
105 | TGTAACACGTGGTATG | -0.13 kcal/mol
106 | CGGTGCACGTGGGGGA | -0.19 kcal/mol
107 | GTAGGCACGTGAGTGA | 0.07 kcal/mol
108 | AGGTACACGTGAGTAA | 0.26 kcal/mol
109 | TAACGCACGTGGGGTC | -0.1 kcal/mol
110 | GGTCGCACGTGTAATG | 0.1 kcal/mol
111 | GGAGGCACGTGTGGGC | 0.03 kcal/mol
112 | GGTCTCACGTGAGGGC | 0.32 kcal/mol
113 | CGTGTCACGTGACTTT | 0.15 kcal/mol
114 | TGATGCACGTGATGCT | -0.02 kcal/mol
115 | GAGATCACGTGTGTGG | 0.32 kcal/mol

From the BET-seq Pho4 binding data (Le et al. 2018)
